Out of some 45,000 compounds screened, about 65 (0.1%) were called active. The call rests on the fitted dose curve; in most records, active means well fitted activation curve with a large enough effect; inconclusive means small, poorly fitted or top-dose-only effect; inactive means no such curve, though single readings can be large or run the other way. The list shows a part of the results.
biological target: Galactocerebrosidase (Homo sapiens) (UniProt P54803); assay: A Novel Cell-Based Assay to Identify Small Molecules for B -Galactocerebrosidase; conditions: 145M-Twi-hGALC-G270D cells (Twitcher mouse brain line with human GALC G270D), HMU-beta-Gal fluorescence, 48 h; series mostly up to 57.5 µM; activation: at the top concentration; further: 0% is about no effect; nearly all actives have a fitted effect of over 65% in size
Summary of the method: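 Mutant human GALC (G270D), stably expressed in a Twitcher mouse brain cell line lacking endogenous GALC, is measured in live-treated cells via 6-hexadecanoylamino-4-methylumbelliferyl-β-galactoside hydrolysis (0.1 mM final, pH 5.2) with fluorescent detection.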

UniProt P54803, sequence (P54803 whole entry, looked up): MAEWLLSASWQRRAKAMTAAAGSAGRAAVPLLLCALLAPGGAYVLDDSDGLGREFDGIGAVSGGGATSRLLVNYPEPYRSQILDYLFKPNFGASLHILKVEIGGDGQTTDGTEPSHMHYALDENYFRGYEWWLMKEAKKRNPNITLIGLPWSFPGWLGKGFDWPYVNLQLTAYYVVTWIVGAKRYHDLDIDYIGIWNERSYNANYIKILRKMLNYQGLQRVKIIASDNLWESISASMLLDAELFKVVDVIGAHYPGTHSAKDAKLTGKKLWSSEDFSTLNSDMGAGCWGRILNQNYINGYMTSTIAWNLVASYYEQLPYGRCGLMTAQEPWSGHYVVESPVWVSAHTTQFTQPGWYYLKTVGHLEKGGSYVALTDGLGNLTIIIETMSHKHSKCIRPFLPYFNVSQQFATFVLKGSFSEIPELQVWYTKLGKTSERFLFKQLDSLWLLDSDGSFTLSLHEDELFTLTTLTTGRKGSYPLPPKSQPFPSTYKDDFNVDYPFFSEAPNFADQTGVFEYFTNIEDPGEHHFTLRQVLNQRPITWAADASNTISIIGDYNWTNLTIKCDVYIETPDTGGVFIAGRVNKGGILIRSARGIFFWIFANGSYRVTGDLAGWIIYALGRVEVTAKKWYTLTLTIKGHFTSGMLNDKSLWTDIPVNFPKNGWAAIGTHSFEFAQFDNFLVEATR

activation, inactive:
CCCCc1nc2ccccc2n1CC(=O)N(COCC)c1c(C)cccc1CC -8.01%
Cc1cc(C)cc(NC(=O)C2CCN(S(=O)(=O)c3ccc4c(c3)oc(=O)n4C)CC2)c1 -10%
CCOC(=O)c1ccc(NC(=O)CSc2nc3c([nH]c4ccccc43)c(=O)n2C)cc1 -5.95%
Cc1cn2c(=O)cc(COc3ccccc3NC(=O)c3ccc(Cl)cc3)nc2s1 20.3%
Cc1ccc(NC(=O)C2CCC(CNS(=O)(=O)c3ccc4c(c3)CCCC(=O)N4)CC2)c(C)c1 (stereo not given) -9.38%
Cc1ccccc1-c1noc(-c2cc(-c3ccc(F)cc3)n[nH]2)n1 -11.4%
COc1ccc(/C=C/C(=O)Nc2ccc3nc(N4CCCCC4)cc(C)c3c2)cc1OC -9.26%
CC(C)c1ccc(Nc2c(-c3ccco3)nc3ccccn23)cc1 -8.58%
COc1cc(NC(=O)c2ccc(-n3cnc4cccnc43)cc2)cc(OC)c1 -23.8%
Cc1nn(C)c2c1c(C(F)(F)F)cc(=O)n2CC(=O)N1CCN(c2ccccc2F)CC1 -5.29%
CC(=O)N1CCc2c(sc3c2c(=O)n(-c2cccc(Cl)c2)c(=O)n3Cc2ccc(F)cc2Cl)C1 -13.6%
O=C(Cn1c(=O)n(-c2ccccc2)c(=O)c2c3c(sc21)CCCC3)Nc1ccccc1 3.35%
CCOC(=O)c1c(NC(=O)/C=C/c2ccc(OCC)cc2)sc2c1CCCC2 -11.4%
O=C(NCc1ccc2c(c1)CCN2C(=O)c1ccc(Cl)cc1)c1ccco1 -12.6%
Cc1cc(-c2ccc(C)c(S(=O)(=O)N3c4ccccc4CC3C)c2)on1 (stereo not given) -20.2%
CCOc1ccc(-c2cc(C(=O)NCCc3ccccc3)c3c(-c4ccc(C)cc4)[nH]nc3n2)cc1 -9.32%
Oc1ccccc1-c1nnco1 -11.2%
Cc1cc(C)c2c(=O)c3c(oc2c1)C(=O)N(Cc1ccco1)C3c1ccc(F)cc1 (stereo not given) -7.66%
CCN(CC)c1cc(C)c2cc(NC(=O)/C=C/c3ccccc3OC(C)C)ccc2n1 -15.2%
Cc1ccc(Oc2nc3ccccn3c(=O)c2/C=C(\C#N)c2nc3ccccc3s2)c(C)c1 -11.8%
CCN(CC)c1ccc(NS(=O)(=O)c2ccc(-c3coc(C)n3)cc2)c(C)c1 -38.1%
Cc1ccc(CC(=O)Nc2c(C(=O)N3CCN(c4ccccc4)CC3)oc3ccccc23)cc1 -16%
Cc1cc(N2CCC(C(=O)Nc3ccc(Cl)cc3)CC2)n2nc(C)c(-c3ccc(Cl)cc3)c2n1 -3.76%
O=C(O)CSc1nnc(-c2ccc(O)cc2)o1 4.1%
CCOC(=O)c1noc2nc(C)n(CC(=O)Nc3ccc(OC)c(Cl)c3)c(=O)c12 -8.06%
CCCCN(CC)CCNC(=O)C1CCN(c2nnc(C)c3c(C)n(-c4ccc(C)cc4)nc23)CC1 -3.59%
CCOC(=O)CSc1nnc2n(-c3ccccc3)c(=O)c3c4c(sc3n12)COC(C(C)C)C4 (stereo not given) -17.9%
Cc1ccc(-n2nc(C)c3c(C(=O)O)cc(C)nc32)cc1 -7.62%
CCc1c(C)nc2nncn2c1NCc1ccc(OC)cc1 -3.61%
Cc1cc2c(cc3c(=O)n(CC(=O)NCc4ccccc4Br)ncn32)s1 -13.3%
Cc1ccc(Cc2c(C)nc3c(-c4ccccc4)c(C)[nH]n3c2=O)cc1 -10.1%
O=C(CSc1nc(=O)[nH]c2c1CCC2)NCc1ccc(Cl)cc1 -11%
Cc1cccc(C)c1OCCn1c(C2CC(=O)N(Cc3ccc(F)cc3)C2)nc2ccccc21 (stereo not given) -30.6%
CC(CNC(=O)c1ccc2c(c1)nc1n2CCOC1)c1ccccc1 (stereo not given) -20.5%
O=C(CCS(=O)(=O)c1cccc2nonc12)Nc1cccc(F)c1 -18.1%
CC(C)NC(=O)CSc1nc2ccccc2c(=O)n1Cc1ccc(C(=O)NC(C)C)cc1 -17.7%
Cc1cccc(CSc2nc3cccnc3n2Cc2ccc(C(=O)NCc3ccco3)cc2)c1 2.28%
COC(=O)c1ccc(C(=O)Nc2ccc(-c3nc4cc(NC(=O)c5ccc(C(=O)OC)cc5)ccc4o3)cc2)cc1 -8.16%
COc1ccc(CN(Cc2ccco2)c2cnc(S(C)(=O)=O)nc2C(=O)Nc2ccc(C)c(C)c2)cc1 1.65%
Cc1ccc(Cl)cc1NC(=O)Cn1cc2c(n1)CCCCC2 -13.1%
CCSc1ncc(Cl)c(C(=O)Nc2ccc(S(=O)(=O)Nc3nccc(C)n3)cc2)n1 -15.2%
Cc1noc2ncnc(N3CCN(c4ccccc4F)CC3)c12 -28.4%
COC(=O)c1ccc(NC(=O)c2cccc3c2C(=O)N(C2CCCCC2)C3)cc1 -13.4%
O=C(O)c1cccc(-c2noc(-c3ccccc3F)n2)c1 -10%
COC(=O)CC1Oc2ccc(C)cc2-n2cc(-c3ccc(F)cc3)nc21 (stereo not given) -9.18%
O=C(CCC1N=C2c3ccccc3N=C(SCc3ccccc3Cl)N2C1=O)N1CCN(c2ccccc2)CC1 (stereo not given) -20.7%
Nc1ccc(S(=O)(=O)Nc2nccs2)cc1 -11.4%
CC(CNC1CCCCC1)OC(=O)c1ccccc1 (stereo not given) -14%
CC1(C)CC(=O)c2cc(-c3nc(-c4ccc(Cl)cc4)cs3)c(=O)n(-c3ccc(F)cc3)c2C1 -13.2%
COc1ccc(Cn2ccc3nc(C)c(C(=O)NCc4ccc(C)cc4)cc3c2=O)cc1 -6.56%
Cc1cccc(OCCSc2nc3ccc(NC(=O)COc4ccccc4F)cc3s2)c1 -11.6%
Cc1cc(Cl)ccc1NC(=O)CCn1nc(C)c2c(C)n(-c3ccccc3)nc2c1=O -19.7%
COc1ccc(-c2oc3ncn4nc(-c5ccccc5Cl)nc4c3c2-c2ccc(OC)cc2)cc1 -8.39%
CCOc1ccc(CCNC(=O)CCN2N=C(c3ccc(OC)cc3)CCC2=O)cc1OCC 2.59%
COc1ccc(N2CCN(C(=O)c3cc(NS(=O)(=O)c4ccc(F)cc4)ccn3)CC2)cc1 -1.63%
CCCSCCCNC(=O)c1cc2n(n1)CCCN(Cc1ccc(C)cc1)C2=O -11%
Cc1ccc(C)c(NC(=O)CSc2ncc3c(n2)-c2cc(Cl)ccc2N(Cc2ccccc2F)S3(=O)=O)c1 -11.5%
Cc1ccc(C)c(N2CCN(C(=O)CCn3c(=O)[nH]c4ccccc4c3=O)CC2)c1 -5.31%
O=S(=O)(c1ccc(F)cc1)N(Cc1nc(-c2ccccc2)no1)C1CCCCC1 -21.6%
CCOC(=O)c1ccc(NC(=O)COc2cccc3c(=O)n(C)ccc23)cc1 2.51%
Cc1oc(-c2ccccc2Cl)nc1CS(=O)CC(=O)NCc1ccccc1Cl (stereo not given) -17.5%
COc1ccc(NC(=O)CN2CCN(CC(=O)Nc3ccccc3F)CC2)cc1OC -21.7%
Cc1ccc(-n2nc(C(=O)Nc3ccc(Br)cc3C)c(=O)n(C)c2=O)cc1 -12.5%
CCOc1ccc(NC(=O)c2sc3nc4c(cc3c2N)CN(Cc2ccccc2)CC4)cc1 -6.9%
COc1ccccc1CNC(=O)CSCc1nc(-c2ccc(OC)c(OC)c2)oc1C -13.5%
COC(=O)c1ccc(NC(=O)C(=O)NCCc2csc(-c3ccc(C(F)(F)F)cc3)n2)cc1 -13.3%
Cc1cc(Cl)ccc1OCC(=O)N1CCC(c2nc3ccccc3o2)CC1 -11.7%
Cc1ccc(CN(Cc2cccn2-c2nnc(N3CCCC3=O)s2)C(=O)Nc2ccc(F)cc2)cc1 -3.08%
CCOc1ccc(NC(=O)N2CCC(c3ccc(C)cc3)C2)cc1 (stereo not given) 2.61%
O=C(COc1ccc(F)cc1)Nc1ccc(C(=O)OCc2cc(=O)n3nc(C4CC4)sc3n2)cc1 -19.7%
CCOC(=O)c1ccccc1NC(=O)NCc1cccn1Cc1ccc(F)cc1 6.91%
COc1ccccc1CNC(=O)C1CCN(S(=O)(=O)c2ccc3[nH]c(=O)ccc3c2)CC1 -18.8%
CCCn1c2ccccc2c2cnn(CC(=O)NCc3ccc(OC)cc3)c(=O)c21 5.02%
COc1ccc(OC)c(NC(=O)CCn2cccn2)c1 -2.86%
Cc1ccc(Cn2ccnc2SCC(=O)Nc2ccccc2C(F)(F)F)cc1 -14.3%
CC(=O)c1ccc(N2CCN(c3nc4ccccc4c4nc(-c5cccc(C)c5)nn34)CC2)cc1 -13.7%
CCOc1ccc(NC(=O)Cn2nc(SC)c(S(=O)(=O)c3ccccc3)c2N)cc1 -11.7%
O=C(CCC1CCN(Cc2ccccc2)CC1)c1ccc2c(c1)NCCCC2 -18.9%
CCOc1ccc(NC(=O)Cn2c(=O)n(Cc3ccco3)c(=O)c3ccc(C(=O)NC4CCCC4)cc32)cc1 7.81%
CCc1nn(CC(=O)N2CCN(c3cccc(Cl)c3)CC2)c(=O)c2cc3sccc3n12 3.64%
Cc1ccccc1N=Nc1ccc(N=Nc2c(O)ccc3ccccc23)c(C)c1 -15.3%
COc1cc(OC)c(NC(=O)Cn2c(SCc3ccccc3F)nc3cccnc32)cc1Cl -8.2%
O=C1CC(c2cccc(Cl)c2Cl)c2cc3c(cc2N1)OCCO3 (stereo not given) 9.93%
Cc1c(Cl)cccc1-n1ncc(C(=O)N2CCC(C)CC2)c1C1CCN(C(=O)OC(C)(C)C)CC1 1.09%
Cc1cc(C)nc(NS(=O)(=O)c2ccc(NC(=O)c3nc(SC(C)C)ncc3Cl)cc2)n1 -6.88%
Cc1ccc(NC(=O)C2CCN(S(=O)(=O)c3ccc4c(c3)CCCN4C(=O)C3CCC3)CC2)cc1 -3.07%
O=C(CCS(=O)(=O)c1nc(-c2cccs2)cc(C(F)(F)F)n1)Nc1ccc(F)c(Cl)c1 -25.8%
O=C(NCCCN1CCCCC1)c1[nH]c2ccccc2c1Sc1ccc(Cl)cc1 -6.98%
Cc1oc(-c2ccc(C(=O)NCc3ccccc3F)cc2)nc1COc1ccccc1 -10.5%
COc1ccc(NC(=O)CSc2nc(-c3ccccc3)[nH]c2-c2ccccc2)cc1OC -9.41%
CCN(CC)c1ccc(NC(=O)CN2CCN(S(=O)(=O)c3cc(Cl)ccc3OC)CC2)cc1 -14.8%
CN(C(=O)C1CCN(c2ncnc3c2nc2n3CCCCC2)CC1)c1ccccc1F -11.9%
CC(=O)c1ccc(N2CCN(C(=O)c3cc4c(s3)-c3ccccc3OC4)CC2)cc1 21.8%
CC(C)C(NS(=O)(=O)c1ccc2c(c1)oc(=O)n2C)C(=O)NCc1ccccc1 (stereo not given) -13.6%
Cc1nc(-c2ccc(S(=O)(=O)N(Cc3ccccc3)C(C)C)cc2)co1 -8.88%

— PubChem BioAssay AID1159614 (National Center for Advancing Translational Sciences (NCATS), 2016)
